Assay results published in ChEMBL document CHEMBL4373683, “Dual-target inhibitors of mycobacterial aminoacyl-tRNA synthetases among N-benzylidene-N'-thiazol-2-yl-hydrazines” (Medchemcomm, 2019).

Test system: Mycobacterium tuberculosis
Experiment: Selectivity ratio of MIC for Mycobacterium tuberculosis H37Rv ATCC 27294 cultured in medium containing 7H9/DPPC/ cholesterol/BSA/Tyloxapol to MIC for Mycobacterium tuberculosis H37Rv ATCC 27294 cultured in medium containing 7H9/glucose/BSA/Tyloxapol incubated for 7 to 14 days by Alamar blue reagent based assay

Compound `COc1ccc(/C=N/Nc2nc(-c3ccc(F)cc3)cs2)cc1Br` has a Selectivity ratio of over 10.
